Where “and” joins values, the source holds several entries; their conditions need not be identical. Equal values may be shown once.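 Five compound concentrations were applied to cells in 96-well plates for 48 hours; endpoints were derived by simple linear interpolation of the resulting dose-response curve. At the GI50, growth is halved.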 Calls of active or inactive are those of the source. Rule as the data show it: active = GI50 up to about 1.1 µM and inactive = higher.
Test system: NCI-H322M
Assay: growth of human tumour cells (NCI), 48 h

| Structure (SMILES) | GI50 |
| --- | --- |
| C=C1C(=O)O[C@@H]2C[C@@H](C)[C@@H]3C=CC(=O)[C@@]3(C)[C@@H](OC(=O)CCCC(=O)O[C@H]3[C@@H]4C(=C)C(=O)O[C@@H]4C[C@@H](C)[C@@H]4C=CC(=O)[C@]43C)[C@H]12 | active: 0.991 µM |
| CC(C)C[C@H](NC(=O)[C@@H](Cc1cccc2ccccc12)NC(=O)N1CCOCC1)B(O)O | inactive: 19.8 µM |
| Cc1nc(-c2ccccc2)cn2c1nc1ccccc12 | inactive: 27.2 µM |
| O=C1C=C(Nc2nc(O)cc(C(=O)O)n2)c2ccccc2C1=O | inactive: > 100 µM |
| Cc1ccccc1C1OC1C(=O)c1ccccc1N (stereo not given) | inactive: 72.9 µM |
| CCCCc1ccc(Nc2nc(O)c3ncn(COCCO)c3n2)cc1 | inactive: > 100 µM |
| c1cncc(CNCCN2CCNCC2)c1 | inactive: > 100 µM |
| COc1cc2c3c(c1OC)-c1cc4c(cc1CC3(C#N)N(C(=O)c1ccccc1)CC2)OCO4 (stereo not given) | inactive: 35.9 µM |
| COc1cc(C2c3cc4c(cc3OC(N3CCCC3)C2C)OCO4)cc(OC)c1O (stereo not given) | inactive: 24.4 µM |
| Brc1ccc2c3c1[C@@H]1O[C@@H]1c1cccc(c1-3)[C@@H]1O[C@H]21 | inactive: 27.3 µM |
| CC1C[C@]2(C)C(NCCN)=Nc3ccccc3[C@@H]2N(C)c2ccccc21 (stereo not given in full) | inactive: 10.9 µM |
| CCOC(=O)CC(C)C1(C(=O)OCC)CCCCC1=O (stereo not given) | inactive: > 100 µM |
| Cn1cc(C(=O)c2ccccc2)c2ccccc2c1=O | inactive: > 100 µM |
| CC(C)OC1OC(CO)C(O)CC1n1cc(F)c(=O)[nH]c1=O (stereo not given) | inactive: > 100 µM |
| O=C(N/N=C/C=C/c1ccccc1)c1ccccc1Nc1ccccc1C(=O)N/N=C/C=C/c1ccccc1 | inactive: > 100 µM |
| C/C(=N\NC(=O)CC#N)c1c(O)cc(C)oc1=O | inactive: > 100 µM |
| CO[C@](C(=O)OC[C@H]1[C@@H](COC(C)=O)[C@@H]2O[C@H]1c1cc3c(cc12)OCO3)(c1ccccc1)C(F)(F)F | inactive: 67.1 µM |
| Cn1nc(-c2ccccc2)c2c(/C=C/c3ccccc3)onc2c1=O | inactive: > 100 µM |
| C=C1C2CC[C@@](C)(O)C2[C@H]2OC(=O)C(=C)[C@@H]2C[C@H]1O (stereo not given in full) | inactive: 51.2 µM |
| CCN(CC)/[N+]([O-])=N/OCC(C)O (stereo not given) | inactive: > 100 µM |
| C[C@H](CCC1=NCCN1)[C@H]1CC[C@H]2[C@@H]3[C@H](O)C[C@@H]4C[C@H](O)CC[C@]4(C)[C@H]3CC[C@]12C | inactive: 14.5 µM |
| CCOC(=O)C(C)(C)Oc1ccc2c(=O)cc(-c3ccccc3)oc2c1 | inactive: > 100 µM |
| c1ncn(C23C4C5C6C4C2C6C53)n1 (stereo not given) | inactive: > 100 µM |

| Structure (SMILES) | GI50 |
| --- | --- |
| C#CCn1ncc2c(SC)ncnc21 | inactive: > 100 µM |
| Cc1ccsc1/C=N/Nc1cnccn1 | inactive: > 100 µM |
| CC(=O)C(=NNc1ccc(-n2c(C)nc3ccc(Br)cc3c2=O)cc1)C(C)=O | inactive: > 100 µM |
| CC(=O)OC1CCn2nnc(COC(=O)NC(C)C)c21 (stereo not given) | inactive: > 100 µM |
| CCOc1ccc2nc(NC(NC(=O)c3cccnc3)(C(F)(F)F)C(F)(F)F)sc2c1 | inactive: 42.4 µM |
| C[N+](C)(C)CC(=O)N/N=C(/Cc1nc2ccc([N+](=O)[O-])cc2nc1O)C(=O)Nc1cc(C(F)(F)F)ccc1Cl | inactive: > 100 µM |
| O=c1oc2ccccc2cc1-c1nc2ccccc2s1 | inactive: 10.5 µM |
| COc1cc(/C=C/C(=N\NC(=S)NN)c2sc(NNC(C)=O)nc2C)ccc1O | inactive: > 100 µM |
| C/C(=C/CNc1ncnc2c1ncn2CCC(=O)O)CO | inactive: > 100 µM |
| CO/C(=N/N1CC1C(F)(F)F)c1ccncc1 (stereo not given) | inactive: > 100 µM |
| Fc1cc(F)c(F)c(S)c1F | inactive: > 100 µM |
| COC1C(OC(=S)Nc2ccccc2)c2ccccc2N1C(C)=O (stereo not given) | inactive: > 100 µM |
| CC(C)OC(=O)C1(C(C)C)CCc2ccc(C(=O)CCC(=O)O)cc21 (stereo not given) | inactive: > 100 µM |
| Cn1nc2ccc3nccc(NCCNCCO)c3c2n1 | inactive: 28.1 µM |
| COc1cc(/C=C2\N=C(c3ccccc3)N(c3nc4c(OC)ccc(OC)c4s3)C2=O)cc(OC)c1OC | inactive: > 100 µM |
| CN(C)CCn1cnc2sc3ccccc3c21 | inactive: > 100 µM |
| COc1ccc(C2(O)c3ccccc3C(=O)N(C)C2(O)c2ccc(OC)cc2)cc1 (stereo not given) | inactive: > 100 µM |
| COc1cc(S(=O)(=O)Nc2ccc(-c3csc(/N=C\c4ccccc4O)n3)cc2)ccc1Cl | inactive: 80 µM |
| O=C([C@H](O)[C@@H](O)c1cccc(Cl)c1)C12CC3CC(CC(C3)C1)C2 | inactive: 2.3 µM |
| CCOC(=O)C1=C(C)N(CC(C)C)C2(O)C(OC)CC(=O)C3C(=O)N(c4ccccc4)C(=O)C132 (stereo not given) | inactive: 44.4 µM |
| O=C(NC(N1CCN(c2cc3c(cc2F)c(=O)c(C(=O)O)cn3C2CC2)CC1)(C(F)(F)F)C(F)(F)F)c1ccccc1 | inactive: 23.7 µM |
| COc1ccc(Cn2c(=O)c(OC)c(C)c3cc4ccccc4cc32)cc1 | inactive: 32.4 µM |
| NC(CCCCO)C(=O)O (stereo not given) | inactive: > 100 µM |

| Structure (SMILES) | GI50 |
| --- | --- |
| CCC1=C(CC2NCCc3ccccc32)CC2c3cc(OC)c(OC)cc3CCN2C1 (stereo not given) | active: 0.392 µM |
| CCOC(=O)c1c(SC(=O)c2ccc(C(C)(C)C)cc2)n(-c2ccccc2)c(=S)n(-c2ccccc2)c1=O | inactive: > 100 µM |
| CC1OC(n2cc(F)c(=O)[nH]c2=O)CCC1=O (stereo not given) | inactive: 62.7 µM |
| COC1/C=C/C(C)C(C(C)C(OC)C(C)CCC(=O)C(C)C(CC(=O)O)OC)OC(=O)/C=C/C=C(\C)CC(OC)C(OC)C2=CC(=O)O[C@@H](C(C)C(OC)CC(OC)/C=C/C(C)C(O)C1)[C@H]2O (stereo not given in full) | active: 0.0702 µM |
| COc1cccc2c1OC1(C=C2)Oc2ccccc2C(=O)N1C (stereo not given) | inactive: 41.9 µM |
| COc1ccc(C(SC2C(O)C(CO)OC2n2ccc(=O)[nH]c2=O)(c2ccccc2)c2ccc(OC)cc2)cc1 (stereo not given) | inactive: 10.8 µM |
| COC(=O)/C(=N\Nc1nnc(C)n1N)C(C#N)c1ccc(Cl)cc1 (stereo not given) | inactive: > 100 µM |
| COc1ccc(OC)c(/C=C2/C(=O)N/C(=N\C(C)=O)N2C)c1 | inactive: > 100 µM |
| C=CCC1C(=O)CC2(C)C(CC=C)C(=O)CC12C (stereo not given) | inactive: > 100 µM |
| COc1cc(/C=C2/C[C@H]3[C@@H]4CCC5=CC(=O)CC[C@]5(C)[C@H]4CC[C@]3(C)NC2=O)cc(OC)c1OC | inactive: 15 µM |
| CC(=O)NC(c1nc2cc(C)c(C)cc2[nH]1)c1nc2cc(C)c(C)cc2[nH]1 | inactive: 25.2 µM |
| CC(O)(CCCCCl)c1nc2ccccc2s1 (stereo not given) | inactive: > 100 µM |
| CN(C)CCCOC(=O)C(O)(Cc1ccccc1)C1CC1 (stereo not given) | inactive: > 100 µM |
| O=c1n(-c2ccccc2)c(=O)n2c(-c3ccccc3)c(-c3ccccc3)n12 | inactive: > 100 µM |
| O=C(Cc1ccccc1)NN1C(=O)C(Cl)C1c1ccc(O)cc1 (stereo not given) | inactive: > 100 µM |
| CCc1c(C)[nH]c2c1/C(=N/N=C1\CCCc3[nH]c(C)c(CC)c31)CCC2 | inactive: 30.8 µM |
| C1COCCN1.S=C(S)N1CCOCC1 | inactive: > 100 µM |
| C[n+]1c2n(c3nc(N)[nH]c(=O)c31)C1OC(C2)C(O)C1O (stereo not given) | inactive: > 100 µM |
| Cc1ccccc1C(=O)N1CCN(C(=O)c2ccccc2C)CC1 | inactive: > 100 µM |
| N#Cc1cccc(C2SCc3nc4ccccc4n32)c1 (stereo not given) | inactive: > 100 µM |
| Cc1c(C(=O)CC(=O)C(=O)Nc2cccc(C(F)(F)F)c2)[n+]([O-])c2ccccc2[n+]1[O-] | inactive: 2.69 µM |
| O=C1c2ccccc2C(=O)c2c1c1cc(O)ccc1n2Cc1ccc(Cl)cc1Cl | inactive: 14.6 µM |
| CC(=O)OCC1OC(N=[N+]=[N-])C(OC(C)=O)C(OC(C)=O)C1OC1OC(COC(C)=O)C(OC(C)=O)C(OC(C)=O)C1OC(C)=O (stereo not given) | inactive: > 100 µM |

| Structure (SMILES) | GI50 |
| --- | --- |
| CC(=O)OCCc1cccnc1/C=N/O | inactive: > 100 µM |
| O=C1NC(c2ccc(O)cc2)C2CCC1C2 (stereo not given) | inactive: > 100 µM |
| CC1N=C(c2ccccc2)OC1=O (stereo not given) | inactive: > 100 µM |
| CC1(C)N=C2C(=O)c3c([nH]c4ccccc34)[C@]3(C)CCC1CC23 (stereo not given in full) | inactive: > 6.25 µM |
| CCOC(=O)C1(CC)CCCCC(=O)N1 (stereo not given) | inactive: > 100 µM |
| COC(C)(C)[C@@H]1CCCN1C1=C(C)C(=O)OC1 | inactive: > 100 µM |
| O=C(C[n+]1ccccc1)N/N=C(\Cc1nc2ccc([N+](=O)[O-])cc2nc1O)C(=O)Nc1cc(Cl)c(Cl)cc1Cl | inactive: > 100 µM |
| COc1ccc(C(Cc2ccccc2)C2NC(=S)NC2=O)cc1 (stereo not given) | inactive: > 25 µM |
| COC(=O)c1c(C#N)[nH]c(-c2ccsc2)c1C(=O)OC | inactive: > 100 µM |
| CCCCCCCCCCCC(=O)OCCOCCOCCOCCOCCOCc1ccc(OC)cc1 | inactive: > 100 µM |
| CC(=O)OC1CCC2(C)C(=CC(C3C=C4CC(OC(C)=O)CCC4(C)C4=C3C3CC5OC6(CCC(C)CO6)C(C)C5C3(C)CC4)C3=C2CCC2(C)C3CC3OC4(CCC(C)CO4)C(C)C32)C1 (stereo not given) | inactive: 23.1 µM |
| Cc1cc2nn(C3CCCO3)nc2cc1C (stereo not given) | inactive: > 100 µM |
| COc1cc(Nc2nc3ccccc3nc2C(C)C)cc(OC)c1OC | inactive: 84.9 µM |
| O=S(O)CCCCSSCC(O)C(O)CSSCCCCS(=O)O (stereo not given) | inactive: 60.5 µM and inactive: 44.4 µM |
| CC(=O)O[C@H]1C(=O)[C@@]2(C)C(C(OC(=O)c3ccccc3)[C@]3(O)CC(OC(=O)C(O)C(NC(=O)c4ccccc4)c4ccc(C)cc4)C(C)=C1C3(C)C)[C@]1(OC(C)=O)CO[C@@H]1C[C@@H]2O (stereo not given in full) | active: 0.0724 µM |
| CC(=O)O[C@H]1CCc2c(cc(N)c3c2C(=O)C[C@]2(C)C([C@H](C)CCCC(C)C)CCC32C)C1(C)C (stereo not given in full) | inactive: > 100 µM |
| O=C(CN(C(=O)OC12CC3CC(CC(C3)C1)C2)C(=O)OC12CC3CC(CC(C3)C1)C2)Oc1ccc([N+](=O)[O-])cc1 | inactive: > 100 µM |
| Cn1c(=O)nc2n(-c3cc(Cl)ccc3Cl)c3ccccc3nc-2c1=O | inactive: 5.65 µM |
| CCN(CC)CCNc1ccc2nc(C)n3c4ccc(OC)cc4c(=O)c1c23 | inactive: 1.13 µM |
| Cc1nc2ccccc2n1Cc1nnc(-c2ccccc2)o1 | inactive: > 100 µM |
| COc1ccc(-c2nnc3nc4ccccc4n3c2O)cc1 | inactive: > 100 µM |

— ChEMBL document CHEMBL1201862, “PubChem BioAssay data set” (2004)
